Laboratory results as given in US20230272055A1, “ANTI-MUTANT CALRETICULIN (CALR) ANTIBODIES AND USES THEREOF” (Incyte Corporation, priority 2021, published 2023).

B1: 72 (antibody)
heavy: EVQLVQSGAEVKKPGASVKVSCKVSGYTLTELSMQWVRQAPGKGLEWMGGFDPDSGETMYAEKFQGRLTVTEDTSTDTVYMELSSLRSEDTAVYFCATSPGYDFFDYWGQGTLVTVSSASTKGPSVFPLAPSSKSTSGGTAALGCLVKDYFPEPVTVSWNSGALTSGVHTFPAVLQSSGLYSLSSVVTVPSSSLGTQTYICNVNHKPSNTKVDKRV[omitted - human IgG1 Fc with changes]
light: SYVLTQPPSVSVAPGKTARITCTGTSSDVGGYNYVSWYQQKPGQAPVLVVYEVSNRPSGIPERFSGSNSGNTATLTISRVEAGDEADYYCQVWDSSNDLLIFGGGTKLTVLGQPKAAPSVTLFPPSSEELQANKATLVCLISDFYPGAVTVAWKADSSPVKAGVETTTPSKQSNNKYAASSYLSLTPEQWKSHRSYSCQVTHEGSTVEKTVAPTECS
B2: 127 (antibody)
heavy: EVQLVQSGAEVKKPGASVKVSCKVSGYTLTELSMQWVRQAPGKGLEWMGGFDPDEGETMYAEKFQGRLTVTEDTSTDTVYMELRSLTSEDTALYFCATSPGYDFFDYWGQGTLVTVSSASTKGPSVFPLAPSSKSTSGGTAALGCLVKDYFPEPVTVSWNSGALTSGVHTFPAVLQSSGLYSLSSVVTVPSSSLGTQTYICNVNHKPSNTKVDKRV[omitted - human IgG1 Fc with changes]
light: SYELTQPPSVSVAPGKTARITCGGDNIGSKSVHWYQQKPGQAPVLVVYDDSDRPSGIPERFSGSNSGNTATLTINRVEAGDEADYYCQVWDSSNDLLIFGGGTKLTVLGQPKAAPSVTLFPPSSEELQANKATLVCLISDFYPGAVTVAWKADSSPVKAGVETTTPSKQSNNKYAASSYLSLTPEQWKSHRSYSCQVTHEGSTVEKTVAPTECS
B3: 172 (antibody)
heavy: EVQLVQSGAEVKKPGASVKVSCKVSGYTLTELSMQWVRQAPGKGLEWMGGFDPDSGETMYAEKFQGRLTVTEDTSTDTVYMELRSLTSEDTALYFCATSPGYDFFDYWGQGTLVTVSSASTKGPSVFPLAPSSKSTSGGTAALGCLVKDYFPEPVTVSWNSGALTSGVHTFPAVLQSSGLYSLSSVVTVPSSSLGTQTYICNVNHKPSNTKVDKRV[omitted - human IgG1 Fc with changes]
light: SYVLTQPPSVSVAPGQTARITCGGSDIGDEIVHWYQQKPGQAPVLVVYDDSDRPSGIPERFSGSNSGNTATLTISRAQAGDEADYYCQVWDSSSDHLIFGGGTKLTVLGQPKAAPSVTLFPPSSEELQANKATLVCLISDFYPGAVTVAWKADSSPVKAGVETTTPSKQSNNKYAASSYLSLTPEQWKSHRSYSCQVTHEGSTVEKTVAPTECS
B4: 171 (antibody)
heavy: EVQLVQSGAEVKKPGASVKVSCKVSGYTLTELSMQWVRQAPGKGLEWMGGFDPDAGETMYAEKFQGRLTVTEDTSTDTVYMELRSLTSEDTALYFCATSPGYDFFDYWGQGTLVTVSSASTKGPSVFPLAPSSKSTSGGTAALGCLVKDYFPEPVTVSWNSGALTSGVHTFPAVLQSSGLYSLSSVVTVPSSSLGTQTYICNVNHKPSNTKVDKRV[omitted - human IgG1 Fc with changes]
light: SYVLTQPPSVSVAPGQTARITCGGSDIGDEIVHWYQQKPGQAPVLVVYDDSDRPSGIPERFSGSNSGNTATLTISRAQAGDEADYYCQVWDSSSDHLIFGGGTKLTVLGQPKAAPSVTLFPPSSEELQANKATLVCLISDFYPGAVTVAWKADSSPVKAGVETTTPSKQSNNKYAASSYLSLTPEQWKSHRSYSCQVTHEGSTVEKTVAPTECS
B5: 182 (antibody)
heavy: EVQLVQSGAEVKKPGASVKVSCKVSGYTLTELSMQWVRQAPGKGLEWMGGFDPDSGETMYAEKFQGRLTVTEDTSTDTVYMELRSLTSEDTALYFCATSPGYDFFDYWGQGTLVTVSSASTKGPSVFPLAPSSKSTSGGTAALGCLVKDYFPEPVTVSWNSGALTSGVHTFPAVLQSSGLYSLSSVVTVPSSSLGTQTYICNVNHKPSNTKVDKRV[omitted - human IgG1 Fc with changes]
light: SYVLTQPPSVSVAPGQTARITCGGSDIGDEIVHWYQQKPGQAPVLVVYDDSDRPSGIPERFSGSNSGNTATLTISRVEAGDEADYYCQVWDSSSDHLIFGGGTKLTVLGQPKAAPSVTLFPPSSEELQANKATLVCLISDFYPGAVTVAWKADSSPVKAGVETTTPSKQSNNKYAASSYLSLTPEQWKSHRSYSCQVTHEGSTVEKTVAPTECS
B6: 186 (antibody)
heavy: EVQLVQSGAEVKKPGASVKVSCKVSGYTLTELSMQWVRQAPGKGLEWMGGFDPDAGETMYAEKFQGRLTVTEDTSTDTVYMELSSLRSEDTAVYFCATSPGYDFFDYWGQGTLVTVSSASTKGPSVFPLAPSSKSTSGGTAALGCLVKDYFPEPVTVSWNSGALTSGVHTFPAVLQSSGLYSLSSVVTVPSSSLGTQTYICNVNHKPSNTKVDKRV[omitted - human IgG1 Fc with changes]
light: SYVLTQPPSVSVAPGQTARITCGGSDIGDEIVHWYQQKPGQAPVLVVYDDSDRPSGIPERFSGSNSGNTATLTISRVEAGDEADYYCQVWDSSSDHLIFGGGTKLTVLGQPKAAPSVTLFPPSSEELQANKATLVCLISDFYPGAVTVAWKADSSPVKAGVETTTPSKQSNNKYAASSYLSLTPEQWKSHRSYSCQVTHEGSTVEKTVAPTECS
B7: 177 (antibody)
heavy: EVQLVQSGAEVKKPGASVKVSCKVSGYTLTELSMQWVRQAPGKGLEWMGGFDPDSGETMYAEKFQGRLTVTEDTSTDTVYMELSSLRSEDTAVYFCATSPGYDFFDYWGQGTLVTVSSASTKGPSVFPLAPSSKSTSGGTAALGCLVKDYFPEPVTVSWNSGALTSGVHTFPAVLQSSGLYSLSSVVTVPSSSLGTQTYICNVNHKPSNTKVDKRV[omitted - human IgG1 Fc with changes]
light: SYVLTQPPSVSVAPGQTARITCGGSDIGDEIVHWYQQKPGQAPVLVVYDDSDRPSGIPERFSGSNSGNTATLTISRAQAGDEADYYCQVWDSSSDHLIFGGGTKLTVLGQPKAAPSVTLFPPSSEELQANKATLVCLISDFYPGAVTVAWKADSSPVKAGVETTTPSKQSNNKYAASSYLSLTPEQWKSHRSYSCQVTHEGSTVEKTVAPTECS
B8: 132 (antibody)
heavy: EVQLVQSGAEVKKPGASVKVSCKVSGYTLTELSMQWVRQAPGKGLEWMGGFDPDEGETMYAEKFQGRLTVTEDTSTDTVYMELSSLRSEDTAVYFCATSPGYDFFDYWGQGTLVTVSSASTKGPSVFPLAPSSKSTSGGTAALGCLVKDYFPEPVTVSWNSGALTSGVHTFPAVLQSSGLYSLSSVVTVPSSSLGTQTYICNVNHKPSNTKVDKRV[omitted - human IgG1 Fc with changes]
light: SYELTQPPSVSVAPGKTARITCGGDNIGSKSVHWYQQKPGQAPVLVVYDDSDRPSGIPERFSGSNSGNTATLTINRVEAGDEADYYCQVWDSSNDLLIFGGGTKLTVLGQPKAAPSVTLFPPSSEELQANKATLVCLISDFYPGAVTVAWKADSSPVKAGVETTTPSKQSNNKYAASSYLSLTPEQWKSHRSYSCQVTHEGSTVEKTVAPTECS
B9: 137 (antibody)
heavy: EVQLVQSGAEVKKPGASVKVSCKVSGYTLTELSMQWVRQAPGKGLEWMGGFDPDEGETMYAEKFQGRLTVTEDTSTDTVYMELRSLTSEDTALYFCATSPGYDFFDYWGQGTLVTVSSASTKGPSVFPLAPSSKSTSGGTAALGCLVKDYFPEPVTVSWNSGALTSGVHTFPAVLQSSGLYSLSSVVTVPSSSLGTQTYICNVNHKPSNTKVDKRV[omitted - human IgG1 Fc with changes]
light: SYVLTQPPSVSVAPGKTARITCGGDNIGSKSVHWYQQKPGQAPVLVVYDDSDRPSGIPERFSGSNSGNTATLTISRVEAGDEADYYCQVWDSSNDLLIFGGGTKLTVLGQPKAAPSVTLFPPSSEELQANKATLVCLISDFYPGAVTVAWKADSSPVKAGVETTTPSKQSNNKYAASSYLSLTPEQWKSHRSYSCQVTHEGSTVEKTVAPTECS
B10: 62 (antibody)
heavy: EVQLVQSGAEVKKPGASVKVSCKVSGYTLTELSMQWVRQAPGKGLEWMGGFDPDSGETMYAEKFQGRLTVTEDTSTDTVYMELSSLRSEDTAVYFCATSPGYDFFDYWGQGTLVTVSSASTKGPSVFPLAPSSKSTSGGTAALGCLVKDYFPEPVTVSWNSGALTSGVHTFPAVLQSSGLYSLSSVVTVPSSSLGTQTYICNVNHKPSNTKVDKRV[omitted - human IgG1 Fc with changes]
light: QSALTQPASVSGSPGQSITISCTGTSSDVGGYNYVSWYQQHPGKAPKLMIYEVSNRPSGVSNRFSGSNSGNTATLTINRVEAGDEADYYCQVWDSSNDLLIFGGGTKLTVLGQPKAAPSVTLFPPSSEELQANKATLVCLISDFYPGAVTVAWKADSSPVKAGVETTTPSKQSNNKYAASSYLSLTPEQWKSHRSYSCQVTHEGSTVEKTVAPTECS

What follows are molecules tested against T1, recombinant MBP-mutCALR Type 1 fusion protein (Homo sapiens, UniProt P27797, DEL40-40) (assay: Biacore SPR binding kinetics, Experiment 2 (parental and variant antibodies)). Settings: Biacore 8K, 25° C., 1:1 binding model.
T1 construct: His6 (N); purchased Cepter (cepterbiopartners.com), custom made
Procedure: The amino acid sequence of recombinant MBP-mutCALR Type 1 fusion protein used in Experiments 1 and 2 is:
Experiment 2: Recombinant MBP-mutCALR Type 1 fusion protein was custom made at Cepter (cepterbiopartners.com). Data for the interaction of antibodies with recombinant mutCALR protein were collected at 25° C. on a Biacore 8K instrument (Cytiva, Marlborough, Mass.), and all reagents were obtained from Cytiva unless otherwise specified. The experiments were conducted using Tris-buffered saline (pH 7.2), 0.005% Surfactant P20, 1 mM CaCl2) as running buffer. To prepare the capture surfaces, anti-human IgG (Fc) antibodies (Product #29234600) was amine-coupled onto a CM4 chip (Product #BR100534) under standard conditions using an Amine Coupling Kit (Product #BR100050). Anti-mutCALR antibodies were captured onto the chip surface by injecting over flow cell 2 only at a flow rate of 10 μL/min for 30 seconds. […] Recombinant MBP-mutCALR Type 1 fusion protein was prepared at nominal concentrations of 0, 0.75, 2.22, 6.67, 20, and 60 nM and injected over both flow cells 1 and 2 for 150 seconds at a flow rate of 69 L/min, followed by a 230-second dissociation phase at the same flow rate. The kinetics parameters were obtained by applying 1:1 binding model to fit the data from multiple-cycle injection experiments using Biacore Insight Evaluation software.
With B1 the “ka” value was 1.02e+06 M⁻¹ s⁻¹ and the “kd” value was 0.00382 s⁻¹. B2 was tested, and the “ka” value was 6.92e+06 M⁻¹ s⁻¹ and the “kd” value was 0.00899 s⁻¹. B3 was tested, and the “ka” value was 1.12e+06 M⁻¹ s⁻¹ and the “kd” value was 0.0025 s⁻¹. For B4, the “ka” value was 6.57e+06 M⁻¹ s⁻¹ and the “kd” value was 0.0109 s⁻¹. B5 was tested, and the “ka” value was 5.62e+06 M⁻¹ s⁻¹ and the “kd” value was 0.00692 s⁻¹. B6 was tested, and the “ka” value was 848000 M⁻¹ s⁻¹ and the “kd” value was 0.00243 s⁻¹. In the case of B7, the “ka” value is reported as 3.7e+06 M⁻¹ s⁻¹ and the “kd” value is reported as 0.00549 s⁻¹. B8 was tested, and the “ka” value was 1.13e+06 M⁻¹ s⁻¹ and the “kd” value was 0.00244 s⁻¹. B9 was tested, and the “ka” value was 7.51e+06 M⁻¹ s⁻¹ and the “kd” value was 0.0095 s⁻¹. B10 was tested, and the “ka” value was 3.52e+06 M⁻¹ s⁻¹ and the “kd” value was 0.00621 s⁻¹.
